Source: the supplement of paper PMC9151546
Most values come without repeats; read them as rough.

Columns and labels:
CHO-K1 [1] = assay: relative survival (nuclei to bead ratio vs DMSO control) (% of vehicle control); higher = more surviving cells
Description: (§1)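 Flow-cytometric in vitro micronucleus assay (Litron MicroFlow) in CHO-K1 cells in 96-well plates, 19 concentrations (4.5-200 µM, n=1 per concentration). Without S9, cells were exposed for 24 h and sampled at 48 h. With Aroclor 1254-induced rat liver S9, cells were exposed for 3-4 h and sampled at 27-28 h. Read-outs are %MN and %hypodiploid nuclei relative to nucleated events, and relative survival as the nuclei-to-bead ratio versus the 1% DMSO vehicle control (x100).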

CHO-K1 [2] = assay: micronucleus frequency (% of nucleated events); higher = more micronuclei (genotoxic)
CHO-K1 [3] = assay: hypodiploid nuclei frequency (% of nucleated events); higher = more hypodiploid events (aneugenic)
Description: as §1

[4] = concentration: 4.5 (µM), S9 metabolic activation: with S9, exposure time: 3-4 hours
[5] = concentration: 4.5 (µM), S9 metabolic activation: without S9, exposure time: 24 hours
[6] = concentration: 5.63 (µM), S9 metabolic activation: with S9, exposure time: 3-4 hours
[7] = concentration: 5.63 (µM), S9 metabolic activation: without S9, exposure time: 24 hours
[8] = concentration: 7.04 (µM), S9 metabolic activation: with S9, exposure time: 3-4 hours
[9] = concentration: 7.04 (µM), S9 metabolic activation: without S9, exposure time: 24 hours
[10] = concentration: 8.8 (µM), S9 metabolic activation: with S9, exposure time: 3-4 hours
[11] = concentration: 8.8 (µM), S9 metabolic activation: without S9, exposure time: 24 hours
[12] = concentration: 11 (µM), S9 metabolic activation: with S9, exposure time: 3-4 hours
[13] = concentration: 11 (µM), S9 metabolic activation: without S9, exposure time: 24 hours
[14] = concentration: 13.7 (µM), S9 metabolic activation: with S9, exposure time: 3-4 hours
[15] = concentration: 13.7 (µM), S9 metabolic activation: without S9, exposure time: 24 hours
[16] = concentration: 17.2 (µM), S9 metabolic activation: with S9, exposure time: 3-4 hours
[17] = concentration: 17.2 (µM), S9 metabolic activation: without S9, exposure time: 24 hours
[18] = concentration: 21.5 (µM), S9 metabolic activation: with S9, exposure time: 3-4 hours
[19] = concentration: 21.5 (µM), S9 metabolic activation: without S9, exposure time: 24 hours
[20] = concentration: 26.8 (µM), S9 metabolic activation: with S9, exposure time: 3-4 hours
[21] = concentration: 26.8 (µM), S9 metabolic activation: without S9, exposure time: 24 hours
[22] = concentration: 33.6 (µM), S9 metabolic activation: with S9, exposure time: 3-4 hours
[23] = concentration: 33.6 (µM), S9 metabolic activation: without S9, exposure time: 24 hours
[24] = concentration: 41.9 (µM), S9 metabolic activation: with S9, exposure time: 3-4 hours
[25] = concentration: 41.9 (µM), S9 metabolic activation: without S9, exposure time: 24 hours
[26] = concentration: 52.4 (µM), S9 metabolic activation: with S9, exposure time: 3-4 hours
[27] = concentration: 52.4 (µM), S9 metabolic activation: without S9, exposure time: 24 hours
[28] = concentration: 65.5 (µM), S9 metabolic activation: with S9, exposure time: 3-4 hours
[29] = concentration: 65.5 (µM), S9 metabolic activation: without S9, exposure time: 24 hours
[30] = concentration: 81.9 (µM), S9 metabolic activation: with S9, exposure time: 3-4 hours
[31] = concentration: 81.9 (µM), S9 metabolic activation: without S9, exposure time: 24 hours
[32] = concentration: 102 (µM), S9 metabolic activation: with S9, exposure time: 3-4 hours
[33] = concentration: 102 (µM), S9 metabolic activation: without S9, exposure time: 24 hours
[34] = concentration: 128 (µM), S9 metabolic activation: with S9, exposure time: 3-4 hours
[35] = concentration: 128 (µM), S9 metabolic activation: without S9, exposure time: 24 hours
[36] = concentration: 160 (µM), S9 metabolic activation: with S9, exposure time: 3-4 hours
[37] = concentration: 160 (µM), S9 metabolic activation: without S9, exposure time: 24 hours
[38] = concentration: 200 (µM), S9 metabolic activation: with S9, exposure time: 3-4 hours
[39] = concentration: 200 (µM), S9 metabolic activation: without S9, exposure time: 24 hours
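Wherever hypodiploid nuclei frequency (% of nucleated events) is given: hypodiploid nuclei gated on a flow cytometer with 488 nm excitation after SYTOX Green staining, cultures at 37 °C, positive controls vinblastine without S9 and cyclophosphamide with S9.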
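Wherever micronucleus frequency (% of nucleated events) is given: cells lysed with nuclei stained by SYTOX Green, then micronucleus-gated events counted against nucleated events by flow cytometry with 488 nm excitation.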
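Wherever relative survival (nuclei to bead ratio vs DMSO control) is given: Lysed-cell nuclei stained with SYTOX Green and counted against counting beads by flow cytometry at 488 nm excitation, with vinblastine (no S9) and cyclophosphamide (plus S9) as positive controls.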

`Cc1cc(-c2ccc(N)c(C)c2)ccc1N` [3,3'-Dimethylbenzidine] gave a relative survival (CHO-K1 [1]; [4]) of 116, a relative survival (CHO-K1 [1]; [5]) of 122 and a relative survival (CHO-K1 [1]; [6]) of 115. The relative survival (CHO-K1 [1]; [7]) was 122, the relative survival (CHO-K1 [1]; [8]) was 114 and the relative survival (CHO-K1 [1]; [9]) was 118. For the same molecule, the relative survival (CHO-K1 [1]; [10]) was 103, the relative survival (CHO-K1 [1]; [11]) was 115 and the relative survival (CHO-K1 [1]; [12]) was 124. It also gave a relative survival (CHO-K1 [1]; [13]) of 126, a relative survival (CHO-K1 [1]; [14]) of 104 and a relative survival (CHO-K1 [1]; [15]) of 117. For the same molecule, the relative survival (CHO-K1 [1]; [16]) was 105, the relative survival (CHO-K1 [1]; [17]) was 122 and the relative survival (CHO-K1 [1]; [18]) was 98. The relative survival (CHO-K1 [1]; [19]) was 121, the relative survival (CHO-K1 [1]; [20]) was 120 and the relative survival (CHO-K1 [1]; [21]) was 94.6. For the same molecule, the relative survival (CHO-K1 [1]; [22]) was 125, the relative survival (CHO-K1 [1]; [23]) was 105 and the relative survival (CHO-K1 [1]; [24]) was 137. For the same molecule, the relative survival (CHO-K1 [1]; [25]) was 102, the relative survival (CHO-K1 [1]; [26]) was 114 and the relative survival (CHO-K1 [1]; [27]) was 111. It also gave a relative survival (CHO-K1 [1]; [28]) of 120, a relative survival (CHO-K1 [1]; [29]) of 90 and a relative survival (CHO-K1 [1]; [30]) of 116. The relative survival (CHO-K1 [1]; [31]) was 96.6, the relative survival (CHO-K1 [1]; [32]) was 117 and the relative survival (CHO-K1 [1]; [33]) was 86.3. For the same molecule, the relative survival (CHO-K1 [1]; [34]) was 108, the relative survival (CHO-K1 [1]; [35]) was 77.6 and the relative survival (CHO-K1 [1]; [36]) was 116. For the same molecule, the relative survival (CHO-K1 [1]; [37]) was 77.4, the relative survival (CHO-K1 [1]; [38]) was 109 and the relative survival (CHO-K1 [1]; [39]) was 68. It also gave a micronucleus frequency (CHO-K1 [2]; [4]) of 0.7%, a micronucleus frequency (CHO-K1 [2]; [5]) of 1.26% and a micronucleus frequency (CHO-K1 [2]; [6]) of 0.98%. For the same molecule, the micronucleus frequency (CHO-K1 [2]; [7]) was 1.46%, the micronucleus frequency (CHO-K1 [2]; [8]) was 1.02% and the micronucleus frequency (CHO-K1 [2]; [9]) was 2.04%. It also gave a micronucleus frequency (CHO-K1 [2]; [10]) of 1.04%, a micronucleus frequency (CHO-K1 [2]; [11]) of 1.08% and a micronucleus frequency (CHO-K1 [2]; [12]) of 0.86%. For the same molecule, the micronucleus frequency (CHO-K1 [2]; [13]) was 1.44%, the micronucleus frequency (CHO-K1 [2]; [14]) was 1% and the micronucleus frequency (CHO-K1 [2]; [15]) was 1.64%. The micronucleus frequency (CHO-K1 [2]; [16]) was 1.2%, the micronucleus frequency (CHO-K1 [2]; [17]) was 1.22% and the micronucleus frequency (CHO-K1 [2]; [18]) was 1.18%. The micronucleus frequency (CHO-K1 [2]; [19]) was 1.6%, the micronucleus frequency (CHO-K1 [2]; [20]) was 1.2% and the micronucleus frequency (CHO-K1 [2]; [21]) was 1.58%. It also gave a micronucleus frequency (CHO-K1 [2]; [22]) of 1.02%, a micronucleus frequency (CHO-K1 [2]; [23]) of 1.22% and a micronucleus frequency (CHO-K1 [2]; [24]) of 0.98%. It also gave a micronucleus frequency (CHO-K1 [2]; [25]) of 1.52%, a micronucleus frequency (CHO-K1 [2]; [26]) of 0.96% and a micronucleus frequency (CHO-K1 [2]; [27]) of 1.7%. The micronucleus frequency (CHO-K1 [2]; [28]) was 1.1%, the micronucleus frequency (CHO-K1 [2]; [29]) was 1.5% and the micronucleus frequency (CHO-K1 [2]; [30]) was 1.12%. The micronucleus frequency (CHO-K1 [2]; [31]) was 1.56%, the micronucleus frequency (CHO-K1 [2]; [32]) was 1% and the micronucleus frequency (CHO-K1 [2]; [33]) was 1.74%. The micronucleus frequency (CHO-K1 [2]; [34]) was 0.92%, the micronucleus frequency (CHO-K1 [2]; [35]) was 2.68% and the micronucleus frequency (CHO-K1 [2]; [36]) was 1.18%. It also gave a micronucleus frequency (CHO-K1 [2]; [37]) of 3.26%, a micronucleus frequency (CHO-K1 [2]; [38]) of 1.02% and a micronucleus frequency (CHO-K1 [2]; [39]) of 4.3%. It also gave a hypodiploid nuclei frequency (CHO-K1 [3]; [4]) of 0.32%, a hypodiploid nuclei frequency (CHO-K1 [3]; [5]) of 0.78% and a hypodiploid nuclei frequency (CHO-K1 [3]; [6]) of 0.34%. For the same molecule, the hypodiploid nuclei frequency (CHO-K1 [3]; [7]) was 1.02%, the hypodiploid nuclei frequency (CHO-K1 [3]; [8]) was 0.12% and the hypodiploid nuclei frequency (CHO-K1 [3]; [9]) was 0.86%. For the same molecule, the hypodiploid nuclei frequency (CHO-K1 [3]; [10]) was 0.28%, the hypodiploid nuclei frequency (CHO-K1 [3]; [11]) was 1.38% and the hypodiploid nuclei frequency (CHO-K1 [3]; [12]) was 0.48%. It also gave a hypodiploid nuclei frequency (CHO-K1 [3]; [13]) of 1.52%, a hypodiploid nuclei frequency (CHO-K1 [3]; [14]) of 0.32% and a hypodiploid nuclei frequency (CHO-K1 [3]; [15]) of 1.88%. For the same molecule, the hypodiploid nuclei frequency (CHO-K1 [3]; [16]) was 0.34%, the hypodiploid nuclei frequency (CHO-K1 [3]; [17]) was 2.34% and the hypodiploid nuclei frequency (CHO-K1 [3]; [18]) was 0.3%. It also gave a hypodiploid nuclei frequency (CHO-K1 [3]; [19]) of 2.72%, a hypodiploid nuclei frequency (CHO-K1 [3]; [20]) of 0.3% and a hypodiploid nuclei frequency (CHO-K1 [3]; [21]) of 1.06%. For the same molecule, the hypodiploid nuclei frequency (CHO-K1 [3]; [22]) was 0.18%, the hypodiploid nuclei frequency (CHO-K1 [3]; [23]) was 1.44% and the hypodiploid nuclei frequency (CHO-K1 [3]; [24]) was 0.3%. It also gave a hypodiploid nuclei frequency (CHO-K1 [3]; [25]) of 1.52%, a hypodiploid nuclei frequency (CHO-K1 [3]; [26]) of 0.26% and a hypodiploid nuclei frequency (CHO-K1 [3]; [27]) of 1.7%. For the same molecule, the hypodiploid nuclei frequency (CHO-K1 [3]; [28]) was 0.2%, the hypodiploid nuclei frequency (CHO-K1 [3]; [29]) was 1.76% and the hypodiploid nuclei frequency (CHO-K1 [3]; [30]) was 0.48%. For the same molecule, the hypodiploid nuclei frequency (CHO-K1 [3]; [31]) was 2.56%, the hypodiploid nuclei frequency (CHO-K1 [3]; [32]) was 0.36% and the hypodiploid nuclei frequency (CHO-K1 [3]; [33]) was 2.52%. It also gave a hypodiploid nuclei frequency (CHO-K1 [3]; [34]) of 0.38%, a hypodiploid nuclei frequency (CHO-K1 [3]; [35]) of 4.1% and a hypodiploid nuclei frequency (CHO-K1 [3]; [36]) of 0.34%. The hypodiploid nuclei frequency (CHO-K1 [3]; [37]) was 5.24%, the hypodiploid nuclei frequency (CHO-K1 [3]; [38]) was 0.32% and the hypodiploid nuclei frequency (CHO-K1 [3]; [39]) was 5.34%.
